# Measurements from PubChem BioAssay AID588855 (National Center for Advancing Translational Sciences (NCATS), 2011).
# Values joined by “and” are separate entries in the source; they are usually repeats but may differ in a detail not shown here. Equal entries are not always repeated. Screen size: about 410,000 compounds; about 5,000 (1.2%) were called active. The shares of active, inactive and inconclusive entries below differ from those in the screen. Calls follow the shape of the dose curve; as a rule, active = well fitted inhibition curve with a large enough effect; inconclusive = small, poorly fitted or top-dose-only effect; inactive = no such curve, though single readings can be large or run the other way. Where the call is inconclusive, the potency comes from a doubtful curve fit.
# Experiment: qHTS for Inhibitors of TGF-b; also: nearly all actives have a fitted effect of over 65% in size
# Conditions: HepG2 CAGA-GFP TGF-b/SMAD3 reporter, GFP fluorescence, 18 h, TGF-beta stimulated, 500 pg/mL final; series mostly up to 46.1 µM; activity, negative = inhibition: at the top concentration
# Summary of the method: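 Inhibition of TGF-beta-driven CAGA-GFP reporter expression in HEPG2 cells is measured by cellular GFP fluorescence after 18 h stimulation with 500 pg/mL recombinant TGF-beta in 1% FBS medium at 37 degrees C.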
# % is scaled to controls: 0 for no effect and ±100 for the full control effect; potency is read from the fitted curve at half-maximal effect; tags tell the direction and shape of the fitted curve.
Structure (SMILES),"activity, negative = inhibition",Potency
COc1ccc2c(c1)CCc1c(C(=O)N3CCCCCC3)noc1-2,inactive: -1.15%,
Cc1cc2c(cc1C)CSC(c1c(O)ccc3ccccc13)SC2,,"inconclusive: 15.8 µM [inhibitor, single point]"
O=C(NNC(=O)c1ccc(S(=O)(=O)N2CCCCC2)cc1)c1ccc(F)cc1,inactive: -2.31%,
CCc1cccc(C)c1Nc1nc2ccccc2n2cnnc12,,"inconclusive: 1.58 µM [inhibitor, partial curve]"
COc1cccc(NC(=O)c2ccc(CN3CCc4ccccc4C3)cc2)c1,,"inconclusive: 8.91 µM [inhibitor, partial curve, poor fit]"
Cc1ccc(S(=O)(=O)N(CC(=O)Nc2ccccc2-c2ccccc2)c2ccc(C)cc2C)cc1,,"inconclusive: 6.31 µM [inhibitor, single point]"
CCCn1c(C)cc(C(=O)COC(=O)c2ccc(Cl)c(S(=O)(=O)N3CCCC3)c2)c1C,inactive: 11%,
COc1c(CC=C(C)C)cc(C2CC(=O)c3c(O)cc(O)cc3O2)cc1CC=C(C)C (stereo not drawn),,active: 14.1 µM
COc1ccc(-c2cc(NCc3ccc(C)cc3)n3cnnc3n2)cc1,,"inconclusive: 3.55 µM [inhibitor, partial curve, poor fit]"
CC1CCN(C(=S)NC(=O)c2cccc([N+](=O)[O-])c2)CC1,inactive: -0.237%,
Cc1nnc(SC(C)C(=O)Nc2ccc(S(=O)(=O)N3CCCCCC3)cc2)s1 (stereo not drawn),inactive: -9.7%,
Cc1cc(C)cc(OC(C)c2ccnc3nc(/N=C/N(C)C)nn23)c1 (stereo not drawn),,"inconclusive: 5.01 µM [inhibitor, single point]"
COC(=O)C(C)(C(=O)OC)c1ccc([N+](=O)[O-])cn1,,"inconclusive: 1.12 µM [inhibitor, single point]"
Oc1c(C(Nc2cccc(C(F)(F)F)c2)c2cccnc2)ccc2cccnc12 (stereo not drawn),,"inconclusive: 35.5 µM [inhibitor, single point]"
CCC1CN(C(=O)NCc2cccc(OC)c2)c2ccccc2O1 (stereo not drawn),,"inconclusive: 35.5 µM [inhibitor, single point]"
O=C(COc1ccccc1F)NCc1ccc(-n2cccc2)cc1,,"inconclusive: 35.5 µM [inhibitor, single point]"
CCOC(=O)c1ccccc1NC(=O)c1cccc(F)c1,,"inconclusive: 14.1 µM [inhibitor, single point]"
COC(=O)C(=O)C/C(=N/Nc1ncnc2ccccc12)c1ccc(Cl)cc1,,"inconclusive: 11.2 µM [inhibitor, partial curve, poor fit]"
N#Cc1nc(Cc2cccc3ccccc23)oc1NCC1CCCO1 (stereo not drawn),inactive: 0.812%,
COc1ccc(OC)c(NC(=O)CCN2C(=O)c3ccccc3C2=O)c1,,"inconclusive: 6.31 µM [inhibitor, single point]"
COc1ccc2nc(Cl)c(/C=N/Nc3ccccn3)cc2c1,inactive: 0%,
O=C(CSCc1nc2cccnc2n1C1CCCCC1)NCc1cccc(Br)c1,,"inconclusive: 35.5 µM [inhibitor, single point]"
C/C(CC(=O)Nc1cccc(C(F)(F)F)c1)=N\NC(=O)C1CCCCC1,,"inconclusive: 35.5 µM [inhibitor, single point]"

Structure (SMILES),"activity, negative = inhibition",Potency
O=C1CNC(=S)N1C1CCCCCC1,inactive: -0.92%,
COc1ccc(-c2cc(-c3nnc(COC(=O)CC4CC5CCC4C5)o3)c3ccccc3n2)cc1OC (stereo not drawn),inactive: -24.7%,
CCn1c(Cl)c(C=O)s/c1=N\S(=O)(=O)c1ccccc1,,active: 3.55 µM
COc1cc(OC)cc(C(=O)N[C@H](C(=O)Nc2nc3ccccc3[nH]2)C(C)C)c1,,"inconclusive: 14.1 µM [inhibitor, partial curve, poor fit]"
CC(=O)c1c(C)[nH]c(C(=O)Nc2cccnc2)c1C,inactive: -19.2%,
CCOc1cc(C(=O)N=c2sccn2C)cc(Br)c1OC,inactive: -1.96%,
CCN(C(=O)Cn1c(SCc2ccccc2F)nc2cccnc21)c1ccccc1,,"inconclusive: 28.2 µM [inhibitor, single point]"
OCC(O)C[n+]1cccc(Br)c1 (stereo not drawn),inactive: 16.4%,
O=C(N/N=C/c1ccc(O)c([N+](=O)[O-])c1)c1ccncc1,inactive: -9.47%,
Cc1ccc(C(=O)NC(=S)Nc2ccc(N3CCN(C(=O)c4ccco4)CC3)cc2)cc1,,"inconclusive: 35.5 µM [inhibitor, single point]"
COc1ccc(-c2csc3ncnc(Nc4ccc(OC)c(OC)c4)c23)cc1,,active: 10 µM
CCOc1ccc(CCNC(=O)c2ccc(Cn3c(=O)c4cccn4c4cccnc43)cc2)cc1,,"inconclusive: 35.5 µM [inhibitor, single point]"
COc1ccc2nc(Nc3nc(C)c(C(C)=O)s3)sc2c1,,"inconclusive: 35.5 µM [inhibitor, single point]"
CC1CCCC(C)N1C(=O)CSc1nc2c(c(=O)n(C)c(=O)n2C)n1C (stereo not drawn),inactive: 1.46%,
Cc1cc(NC(=O)CSc2nc3c(c(=O)n2-c2ccc(Cl)cc2)SCC3)no1,inactive: -3.91%,
CCC1Nc2ncnc(N3CCOCC3)c2N(Cc2ccc(C)cc2)C1=O (stereo not drawn),inactive: 6.18%,
CC1(Oc2ccc3ccccc3c2)CCN(Cc2cccn2-c2nccs2)C1 (stereo not drawn),,"inconclusive: 15.8 µM [inhibitor, single point]"
COc1cccc(-c2cc(C(=O)N3CC4(C)CC3CC(C)(C)C4)no2)c1 (stereo not drawn),,"inconclusive: 20 µM [inhibitor, single point]"
COc1ccccc1N1CCN(C(c2ccccc2)c2nnc(-c3ccccc3Cl)o2)CC1 (stereo not drawn),,"inconclusive: 35.5 µM [inhibitor, single point]"
Cc1ccc(OCCN(C)C(=O)c2cc(COc3ccc(F)cc3F)on2)cc1,,"inconclusive: 11.2 µM [inhibitor, partial curve]"
COc1ccc(C(=O)NC(c2ccc(OC)c(OC)c2)c2cc(Cl)c3cccnc3c2O)cc1 (stereo not drawn),inactive: -1.23%,
Cc1cc(C)c(C(=O)NC2CC(C)(C)Cc3c2cnn3-c2cccc(F)c2)[nH]1 (stereo not drawn),,"inconclusive: 17.8 µM [inhibitor, single point]"
CCOc1ccc(OCC)c(NC(=O)CN(c2ccc(C)cc2)S(=O)(=O)c2c(C)n[nH]c2C)c1,,"inconclusive: 35.5 µM [inhibitor, single point]"

Structure (SMILES),"activity, negative = inhibition",Potency
C=CCN(CC=C)C(=S)NC(=O)/C=C/c1ccc(OC)cc1,,"inconclusive: 3.16 µM [inhibitor, partial curve, poor fit]"
Cc1ccc(C)c(NC(=O)C2CCCN(S(=O)(=O)c3cccc4nsnc34)C2)c1 (stereo not drawn),,"inconclusive: 8.91 µM [inhibitor, partial curve, poor fit]"
Cc1ccc(-c2nnc(N3CCN(C(=O)c4ccco4)CC3)c3ccccc23)cc1,inactive: -16.4%,
O=S1(=O)c2ccc(Br)cc2N2CCC[C@@H]2CN1Cc1ccccc1,,"inconclusive: 35.5 µM [inhibitor, single point]"
CC(C)(C)CC(=O)Nc1ccccc1N1CCN(c2ccc(F)cc2)CC1,inactive: -23.1%,
CCN(CC)C(=O)C1=C(C)Nc2nnnn2C1c1cccnc1 (stereo not drawn),,"inconclusive: 11.2 µM [inhibitor, partial curve]"
O=C(OCc1cccc([N+](=O)[O-])c1)c1ccc2ccccc2n1,inactive: -11.1%,
Cc1ccc(-n2c(O)c(/C=N/NC(=O)C3COc4ccccc4O3)c3ccccc3c2=O)cc1 (stereo not drawn),,"inconclusive: 35.5 µM [inhibitor, single point]"
CCC1CCCCN1C(=O)Cn1c(=O)n(-c2ccccc2C(F)(F)F)c(=O)c2c(C)c(C(=O)N(C)C)sc21 (stereo not drawn),inactive: -13.2%,
CC1(C)Cc2c(sc(NC(=O)COc3cccc4ccccc34)c2C#N)C(C)(C)N1,,"inconclusive: 10 µM [inhibitor, partial curve, poor fit]"
CC(C)CNC(=S)N(CCO)Cc1cc2cc3c(cc2[nH]c1=O)OCO3,,"inconclusive: 35.5 µM [inhibitor, single point]"
Cc1cccc(NC(=O)Nc2ccc(C)cc2Br)c1,,"inconclusive: 12.6 µM [inhibitor, single point]"
CCc1ccc(NC(=O)c2c(Cl)nc(C)c(Cl)c2C)cc1,,"inconclusive: 35.5 µM [inhibitor, single point]"
Cc1cccc(NC(=O)C2CC(=O)n3cnnc3S2)c1 (stereo not drawn),,"inconclusive: 35.5 µM [inhibitor, single point]"
NC(=Nc1ccc(Cl)cc1)c1ccccc1,,"inconclusive: 35.5 µM [inhibitor, single point]"
O=C(CCc1ccccc1Cl)Nc1cccc(S(=O)(=O)N2CCCC2)c1,inactive: -21.5%,
CCOC(=O)c1cnc2ccc(OCC)cc2c1N1CCN(c2cccc(Cl)c2)CC1,,"inconclusive: 17.8 µM [inhibitor, partial curve, poor fit]"
CCN(CC)CCNC(=O)c1ccc(NC(=O)c2cc(S(=O)(=O)N3CCCCC3)ccc2N2CCOCC2)cc1,,"inconclusive: 3.98 µM [inhibitor, single point]"
O=C1CC(c2ccccc2)Cc2[nH]c(=O)c(-c3nc(-c4ccc(F)cc4)cs3)cc21 (stereo not drawn),,"inconclusive: 2.24 µM [inhibitor, partial curve, poor fit]"
COc1ccc(CC(=O)OCC(=O)N(CC(C)C)c2c(N)n(Cc3ccccc3)c(=O)[nH]c2=O)cc1,,"inconclusive: 4.47 µM [inhibitor, partial curve, poor fit]"
Cc1ccccc1-c1nc(CS(=O)CC(=O)NCCc2ccc(Cl)cc2)c(C)o1 (stereo not drawn),,"inconclusive: 22.4 µM [inhibitor, partial curve, poor fit] and inconclusive: 22.4 µM [inhibitor, single point]"
COc1ccc(-c2cc(C(F)(F)F)nc(S(=O)(=O)CCC(=O)N3CCOCC3)n2)cc1,inactive: -7.77%,
